Measurements published in the antibiotic and cytotoxicity screens of Wong et al. (2023).
Some of the results follow.

What was measured:
[1] = test system: HSkMC (human skeletal muscle cells); test: cytotoxicity call (relative viability < 0.9); conditions: 10 µM
[2] = test system: HepG2; test: cytotoxicity call (relative viability < 0.9); conditions: 10 µM
[3] = test system: S. aureus RN4220; test: growth inhibition call (relative growth <= 0.2); conditions: 50 µM

| Compound | cytotoxicity call [1] | cytotoxicity call [2] | growth inhibition call [3] |
| --- | --- | --- | --- |
| COc1ccc(NC(=O)Nc2ccc3c(c2)[C@H]2C[C@H](CC(=O)NCc4ccncc4)O[C@H](CO)[C@H]2O3)cc1 | inactive | inactive | inactive |
| CC(C)CC#Cc1ccc2c(c1)O[C@@H](CN(C)C(=O)C1CCOCC1)[C@@H](C)CN([C@H](C)CO)S2(=O)=O | inactive | inactive | inactive |
| C[C@@H]1CCCCO[C@@H](CN(C)C(=O)Nc2ccc3c(c2)OCO3)[C@H](C)CN([C@H](C)CO)C(=O)c2cc(NC(=O)CCC(F)(F)F)ccc2O1 | inactive | inactive | inactive |
| CCCNC(=O)N[C@@H]1CC[C@H](CC(=O)N2CCN(C)CC2)O[C@H]1CO | inactive | inactive | inactive |
| CCCNC(=O)N1C[C@@H](C)[C@@H](OC)CN(C)C(=O)c2ccc(NS(=O)(=O)CC(F)(F)F)cc2OC[C@@H]1C | inactive | inactive | inactive |
| COc1ccc(NC(=O)N(C)C[C@@H]2Oc3c(NC(=O)c4ccc(-c5nccs5)cc4)cccc3C(=O)N([C@H](C)CO)C[C@H]2C)cc1 | inactive | inactive | inactive |
| C[C@H](NC(=O)N(C)C[C@H]1OCc2ccccc2-c2ccccc2C(=O)N([C@@H](C)CO)C[C@H]1C)c1ccccc1 | inactive | inactive | inactive |
| C[C@@H]1CCCCO[C@@H](CN(C)C(=O)NC2CCCCC2)[C@H](C)CN([C@@H](C)CO)C(=O)c2cc(NC(=O)NC3CCCCC3)ccc2O1 | inactive | inactive | inactive |
| C=C[C@]1(C)C=C2CC[C@H]3C(C)(C)[C@H](O[C@@H]4O[C@@H](CO)[C@H](O)[C@H]4O)CC[C@@]3(C)[C@H]2C[C@@H]1O[C@@H]1O[C@H](CO)[C@@H](OC)[C@H](O)[C@H]1O | inactive | inactive | inactive |
| COc1cccc(S(=O)(=O)N(C)C[C@H]2Oc3cc(C#CCC(C)C)ccc3S(=O)(=O)N([C@@H](C)CO)C[C@@H]2C)c1 | inactive | inactive | inactive |
| Cc1noc(C)c1S(=O)(=O)Nc1ccc2c(c1)C(=O)N([C@@H](C)CO)C[C@H](C)[C@H](CN(C)C(=O)Nc1ccc(F)cc1)OCCCC[C@H](C)O2 | inactive | inactive | inactive |
| COc1cccc(CNC(=O)c2cc3c(c(-c4cccc(-c5ccncc5)c4)n2)[C@H](CCO)N([S@@](=O)C(C)(C)C)C3)c1 | inactive | inactive | inactive |
| C[C@@H]1CCCCO[C@H](CN(C)C(=O)c2ccncc2)[C@@H](C)CN([C@H](C)CO)C(=O)c2cc(NC(=O)CCCCCC(=O)Nc3ccccc3N)ccc2O1 | inactive | inactive | inactive |
| C[C@@H]1CN([C@@H](C)CO)C(=O)c2cc(C#Cc3ccccc3)cnc2O[C@@H]1CN(C)S(=O)(=O)c1ccccc1F | inactive | active | inactive |
| C[C@@H]1CCCCO[C@H](CN(C)C(=O)Nc2ccc(F)cc2)[C@@H](C)CN([C@@H](C)CO)C(=O)c2cc(NS(=O)(=O)c3ccc(F)cc3)ccc2O1 | inactive | active | inactive |
| COc1ccccc1-c1ccc2c(c1)O[C@H](CN(C)C(=O)c1cccnc1)[C@@H](C)CN([C@@H](C)CO)S2(=O)=O | inactive | inactive | inactive |
| C[C@@H]1CN([C@@H](C)CO)C(=O)c2cc(NC(=O)C3CCCCC3)ccc2O[C@@H](C)CCCCO[C@H]1CN(C)C(=O)NC1CCCCC1 | inactive | inactive | inactive |
| COc1ccc(CN(C)C[C@@H]2OCCCC[C@@H](C)Oc3ccc(NS(=O)(=O)c4ccc(C)cc4)cc3C(=O)N([C@@H](C)CO)C[C@H]2C)cc1 | inactive | inactive | inactive |
| CO[C@@H]1CN(C)C(=O)c2ccc(NC(=O)Nc3ccccc3F)cc2OC[C@@H](C)N(CCC(F)(F)F)C[C@H]1C | inactive | inactive | inactive |
| C[C@@H]1CN([C@@H](C)CO)C(=O)c2cc(NC(=O)Nc3ccc(C(F)(F)F)cc3)ccc2O[C@@H]1CN(C)Cc1ccccc1 | active | active | inactive |
| C[C@@H]1CCCCO[C@@H](CN(C)S(=O)(=O)c2ccccc2)[C@@H](C)CN([C@@H](C)CO)C(=O)c2cc(NC(=O)CCC(F)(F)F)ccc2O1 | inactive | inactive | inactive |
| Cc1noc(C)c1S(=O)(=O)N(C)C[C@@H]1OCCCC[C@H](C)Oc2ccc(NC(=O)Nc3ccc(C(F)(F)F)cc3)cc2C(=O)N([C@H](C)CO)C[C@H]1C | inactive | inactive | inactive |
| CC(C)NC(=O)Nc1ccc2c(c1)C(=O)N([C@H](C)CO)C[C@@H](C)[C@H](CN(C)C(=O)Nc1ccc(F)cc1)OCCCC[C@@H](C)O2 | inactive | inactive | inactive |
| CCC(=O)N(C)C[C@@H]1Oc2ncc(C#C[C@@H](C)O)cc2C(=O)N([C@H](C)CO)C[C@H]1C | inactive | inactive | inactive |
| CC(C)(C)c1ccc2oc(CN)nc2c1 | inactive | inactive | inactive |
| CCCc1nc(C(C)(C)O)c(C(=O)OCc2oc(=O)oc2C)n1Cc1ccc(-c2ccccc2-c2nn[nH]n2)cc1 | inactive | inactive | inactive |
| C[C@@H]1CN([C@@H](C)CO)C(=O)c2cc(NC(=O)CCN3CCOCC3)ccc2O[C@@H]1CN(C)C(=O)Nc1ccc2c(c1)OCO2 | inactive | active | inactive |
| COc1ccc(CN(C)C[C@H]2OCCCC[C@@H](C)Oc3ccc(NC(=O)C4CCCCC4)cc3C(=O)N([C@H](C)CO)C[C@@H]2C)cc1 | inactive | inactive | inactive |
| CC(C)N1CCNCC1 | inactive | inactive | inactive |
| COCCNC(=O)C[C@@H]1C[C@@H]2c3cc(NS(C)(=O)=O)ccc3O[C@@H]2[C@H](CO)O1 | inactive | inactive | inactive |
